The source of these data is the RNAGym collection of RNA variant scans (doi:10.1073/pnas.2313332121).

Variants at the floor of the assay are shown more often than the library holds them.

B1: TPR 5TU (parent)
chain: GGAUCUUCUCGAUCUAACAAAAAAGACAAAUCUGCCACAAAGCUUGAGAGCAUCUUCGGAUGCAGAGGCGGCAGCCUUCGGUGGCGCGAUAGCGCCAACGUUCUCAACUAUGACACGCAAAACGCGUGCUCCGUUGAAUGGAGUUUAUCAUG

The variants in the series derive from B1. The experiment in a line: polymerase ribozyme fitness, log enrichment relative to wild type (log ratio); higher = more active; in vitro selection for triplet polymerase activity. The essentials:
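Both subunits of a heterodimeric triplet polymerase ribozyme were given their own mutant library, built by PCR and transcribed. Each library was annealed with a biotinylated primer, the partner subunit and triplets, incubated frozen at −7 °C, and its extended constructs gel-excised, captured on streptavidin beads and amplified by RT-PCR, all in one round done in triplicate. Fitness is the logarithm of genotype enrichment relative to wild-type enrichment, with replicates averaged by inverse-variance weighting. That logarithm is base 2, and Illumina-sequenced genotypes needed ≥10 input reads and ≥1 read per output.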
Regarding GGAUCUUCUCGAUCUAACAAAAAAGACAAAUCUGCCACAAAGCUUGCGAGCAUCUUCGGAUGCAGAGGCGGCAGCCUUCGGUGGCGCGAUAUCGCGAACGUUCUCAACUAUGACACGCAAAACGAGUGUUCCGUUGAAUGGAGUUUAUCAUG, the “polymerase ribozyme fitness (log ratio)” value was no more than -4.2.
Under GGAUCUUCUCGAUCUAACAAAAAAGACAAAUCUGCCACAAAGCUUGCGAGCAUCUUCGCAUGAAGAGGCGGCAGCCUUCGGUGGCGCGAUAGCACCAACGUUCUCAACUAUGACACGCAAAACGCGUGCUCCGUUGAAUGGAGUUUAUCAUG stands no more than -4.2.
For GGAUCUUCUCGAUCUAACAAAAAAGACAAAUCUGCCACAAAGCUUGCGAGCAUCUUCGAAUGCAGAGACGGCAGCCUUCGGGGGCGCGAUAGCGCCAACGUUCUCAACUAUGACACGCACAACGCAUGCUCCGUUGAAUGGAGUUUAUCAUG the value was no more than -4.2; for GGAUCUUCUCGAUCUAACAAAAAAGACAAAUCUGCCACAAAGCUUGCGAGCAUCUUCGGAUGCAGAGGCGGCAGCCUUCGGUGGCUCGAUAGCGCCAACGUUCUCAGCUAUGACACGCAAAACGCGUGCUCCGUUGAAUGGAGUUUAUCAUG, no more than -4.2.
For GGAUCUUCUCGAUCUAACAAAAAAGACAAAUCUGCCACAAAGCUUUAGAGCAUCUUCGGAUGCAGAGGCGGCAGCCUUCGGGGGCUCGAUAGCGCGAACGUUCUCAACUAUGACACGCAAAACGCGUGCUCCGUUGAAGGGAGGUUAUCAUG the value was no more than -4.2; for GGAUCUUCUCGAUCUAACAAAAAAGACAAAUCUGCCACAAAGCUUGCAAGCCUCUUCGGAUGCAGCGGCGGCAGCCUUCGGUGGUGCGAUAGCGCCAACGUUCUCAACUAUGACACGCAAAACGCGUGCUCCGUUGAAUGGAGUUUAUCAUG, no more than -4.2; for GGAUCUUCUCGAUCUAACAAAAAAGACAAAUCUGCCACAAAGCUUGCGAGCAUCUUCGGGUGCUGAGGCGGCAGCCUUCGGUGGCGCCAUCGCGCCAACGUUCUCAACUAUGACACGCAAAACGCGUGCUCCGUUGAAUGGAGUUUAUCAUG, no more than -4.2.
Turning to GGAUCUUCUCGAUCUAACAAAAAAGACAAAUCUGCCACAAAGCUUGCGAGCAUCUUCGGAUGCAGAGGCGGCAGCCUUCGGUGGCGAGAUAGCGCCAACGUUCUCUACUAUGAAACGCAAAACGCGUGCUCCGUUGAAUGGAGUUUAUCAUG, the “polymerase ribozyme fitness (log ratio)” value is no more than -4.2.
For GGAUCUUCUCGAUCUAACAAAAAAGACAAAUCUGCCACAAAGCUUUAGAGCAUCUUCGGAUGCAGAGGCGGCAGCCUUCGGUAGCGCGAUAGCGCCAACGUUCUCAACUAUGACACGCAAAACGCGUACUCCGUUGAAUGGAGUUUAUCAUG the value was no more than -4.2; for GGAUCUUCUCGAUCUAACAAAAAAGACAAAUCUGCCACAAAGCUUGCGAGCAUCUUCGGAUGCAGGGGCGGCAGCCUUCGGUGGCGCGAUAGCGCCAACGUUCUCAACUAUGUCACGCAAAACGCGUGCGCAGUUGAAUGGAGUUUAUCAUG, no more than -4.2; for GGAUCUUCUCGAUCUAACAAAAAAGACAAAUCUGCCACAAAGCUUGCGAGCAUAUUCGGAUGCAGAGGCGGCAGCCUUCGGUAGCGCGAUAGCGCCAACGUUCUCAACUAUGACACGGAAAACGCGUGCUCCGUUGAAUGGCGUUUAUCAUG, no more than -4.2.
On to GGAUCUUCUCGAUCUAACAAAAAAGACAAAUCUGCCACAAAGCUUGGGCGCAUCUUCGGAUGCAGAGGCGGCAGCCUUCGGUGGCGCGAUAGCGCAAACGUUCUCAACUAUGACACGCAAAACGCGUGCUCCGUUGAAUGGAGUUUAUCAUG, for which the “polymerase ribozyme fitness (log ratio)” value is no more than -4.2.
Consider GGAUCUUCUCGAUCUAACAAAAAAGACAAAUCUGCCACAAAGCUUGCGAGCAUCUUCGGAUGCAGAGGCGGCAGUCUUCGGUGGAGCGAUAGAGCCAUCGUUCUCAACUAUGACACGCAAAACGCGUGCUCCGUUGAAUGGAGUUUAUCAUG, for which the “polymerase ribozyme fitness (log ratio)” value was no more than -4.2.
For GGAUCUUCUCGAUCUAACAAAAAAGACAAAUCUGCCACAAAGCUUGCGAGCAUCUUAGGAUGCAGCGGCGGCAGCCUUCGGUGGCGAGUUAGCGCCAACGUUCUCAACUAUGACACGCAUUAAGUGUGCUCCGUUGAAUGGAGAUUAUCAUG the value was no more than -4.2; for GGAUCUUCUCGAUCUAACAAAAAAGACAAAUCUGCCACAAAGCUUGCGAGCAUCUUCGGUUGCAGAGGCGGCAGUCUUCGGUGGCGCGAUGGCGCCAACGUUCUCAGCUAUGACACGAAAAACGCGUGCUCCGUUGAAUGGAGUUUAUCAUG, no more than -4.2; for GGAUCUUCUCGAUCUAACAAAAAAGACAAAUCUGCCACAAAGCUUGCGAGCAUCUUCGGAUGCAGUGGCGGCAGCUUUCGGUGGAGCGAUAGCGCCAAAGUUCUCAACUAUGACACGCAAAACGCGUGCUCCGUUGAAUGGAGUUUAUCAUG, no more than -4.2.
Take GGAUCUUCUCGAUCUAACAAAAAAGACAAAUCUGCCACAAAGCUUUAGAGCAUCGUCGGAUGCAGAGGCGGCAGCCUUCGGUGGCGCGUUAGCGACAACGUUGUCAACUAUGAAACGCAAAACGCGUGCUCCGUUGACUGGAGUUUAUCAUG: the “polymerase ribozyme fitness (log ratio)” value was no more than -4.2.
On to GGAUCUUCUCGAUCUAACAAAAAAGACAAAUCUGCCACAAAGCUUUAGAGCAUAUUCGGAUGCAGAGGCGGCAGCCUUCGGUGGCGCGAUAGGGCCAACGUUCUCAACUAUGACACGCGAAACGCGUGCUCCGUAGAAUGGAGUUUAUCAUG, for which the “polymerase ribozyme fitness (log ratio)” value is no more than -4.2.
For GGAUCUUCUCGAUCUAACAAAAAAGACAAAUCUGCCACAAAGCUUGGGGGCAUCUUCGGAUGCAGAGGCGGCAGCCUUCGGUGGCGCGAUAGCGCCAACGUUGUCAACUAUGACACGCAAAACGCGUGCUCCGUUGAAUGGAGUUUAUCAUG the value was no more than -4.2.
